Reference: PubChem BioAssay AID686979 (National Center for Advancing Translational Sciences (NCATS), 2013)
Several values for one entry are separate records, joined by “and”; a condition that tells them apart may be missing. Equal values may be shown once. The whole screen tested about 420,000 compounds, of which about 50,000 (12%) were called active. The shares of active, inactive and inconclusive entries below differ from those in the screen. Calls come from the whole dose curve; as a rule, active = well fitted inhibition curve with a large enough effect; inconclusive = small, poorly fitted or top-dose-only effect; inactive = flat fitted curve, though single readings scatter. Where the call is inconclusive, the potency comes from a doubtful curve fit.

assay: qHTS for Inhibitors of human tyrosyl-DNA phosphodiesterase 1 (TDP1): qHTS in cells in presence of CPT; settings: chicken DT40 Tdp1-/-;hTDP1 cells + 20 nM CPT, ATP luminescence, 48 h; series mostly up to 46.2 µM; note: nearly all actives have a fitted effect of over 55% in size
Method in brief: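 Cell growth measured by CellTiter-Glo luminescence after a minimum 48 h, 37 C compound exposure with 20 nM CPT in Tdp1-knockout DT40 cells stably expressing hTDP1, seeded 400/well; qHTS titration format.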
Potency is the fitted concentration of half-maximal effect; tags give direction and shape of the fitted curve.

Question: With `COc1c(C)cccc1C(=O)Nc1ccc(-c2nc3ccccc3s2)c(Cl)c1` as the molecule, how does the Potency read?
Answer: The Potency was inconclusive: 18.4 µM [inhibitor, single point].

Question: With `CNC(=O)N1c2ccccc2C=Cc2ccccc21` as the molecule, how does the Potency read?
Answer: The Potency was “inactive”.

Question: Which Potency does the source give for `CCn1c2ccccc2c2cc(NC(=O)CSc3nnc(-c4cccc(Cl)c4)o3)ccc21` here?
Answer: The Potency was inconclusive: 29.1 µM [inhibitor, single point].

Question: Which Potency does the source give for `O.O=C([O-])CC([S-])C(=O)[O-].[Au+].[Na+].[Na+]` (stereo unspecified) here?
Answer: The Potency was “inactive”.

Question: Which Potency does the source give for `O=C(CCC1CCCN(c2ncccn2)C1)NCc1ccc(F)c(F)c1` (stereo unspecified) here?
Answer: Its Potency is “inactive”.

Question: With `Cc1ccccc1-c1cccc([C@@H]2C[C@H]3[C@H](CON3C)CN2Cc2cc(Cl)cc(Cl)c2)c1` as the molecule, how does the Potency read?
Answer: The Potency was inconclusive: 18.4 µM [inhibitor, single point].

Question: For `O=C(COC(=O)c1ccco1)Nc1cccc(S(=O)(=O)N2CCOCC2)c1`, which Potency is on record?
Answer: The Potency was “inactive”.

Question: For `CCOc1ccc(CCNC(=O)Cn2ncn3nc(-c4ccc(OC)cc4)cc3c2=O)cc1`, which Potency is on record?
Answer: Its Potency is inconclusive: 5.8 µM [inhibitor, partial curve].

Question: With `COc1ccc(C)cc1NC(=O)CN1CCCC1c1ccc2c(c1)OCCCO2` (stereo unspecified) as the molecule, how does the Potency read?
Answer: The Potency was inconclusive: 20.6 µM [inhibitor, single point].

Question: With `O=C(CSc1ncc(-c2ccccc2)n1C1CCCC1)N1CCc2ccccc21` as the molecule, how does the Potency read?
Answer: The Potency was active: 23.1 µM.

Question: Which Potency does the source give for `COc1ccc2[nH]cc(CCNc3ncnc4ccc(-c5c(C)noc5C)cc34)c2c1` here?
Answer: The Potency was inconclusive: 25.9 µM [inhibitor, single point].

Question: With `CCNC(=O)C1CCCN(C(=O)c2cc(F)ccc2C)CC1` (stereo unspecified) as the molecule, how does the Potency read?
Answer: Its Potency is “inactive”.

Question: With `CC(Sc1n[nH]c(=O)n1Cc1ccccc1)C(=O)NCC1CCCO1` (stereo unspecified) as the molecule, how does the Potency read?
Answer: Its Potency is “inactive”.

Question: Which Potency does the source give for `CCOC(=O)c1cc2oc(C)cc2n1CC(=O)OC1CCCCC1` here?
Answer: Its Potency is “inactive”.

Question: With `Cc1ccc(-c2cc3ccccc3nc2N2CCCC2)cc1` as the molecule, how does the Potency read?
Answer: The Potency was inconclusive: 32.6 µM [inhibitor, partial curve, poor fit].

Question: Which Potency does the source give for `Cc1ccc(CN2C(=O)c3ccccc3Sc3ccc(C(=O)NCCN4CCOCC4)cc32)cc1` here?
Answer: Its Potency is inconclusive: 29.1 µM [inhibitor, single point].

Question: For `CC(C)(C)OC(=O)Nc1ccccc1-n1nnnc1C(C(=O)c1ccccc1)N1CCN(c2ccccn2)CC1` (stereo unspecified), which Potency is on record?
Answer: The Potency was inconclusive: 14.6 µM [inhibitor, single point].

Question: With `Cc1cc(C)c2ccc(NN)nc2c1O` as the molecule, how does the Potency read?
Answer: The Potency was inconclusive: 29.1 µM [inhibitor, single point].

Question: With `CN(C(=O)c1ccc(NC(=O)C2CCCN(C(=O)OC(C)(C)C)C2)cc1)C1CCCC1` (stereo unspecified) as the molecule, how does the Potency read?
Answer: Its Potency is inconclusive: 20.6 µM [inhibitor, single point].

Question: Which Potency does the source give for `Nc1nc2n(n1)C(c1cccc(Br)c1)CC(c1ccc(F)cc1)N2` (stereo unspecified) here?
Answer: The Potency was inconclusive: 20.6 µM [inhibitor, partial curve].

Question: For `CCOC(=O)C1(COCc2ccccc2)CCCCC1=O` (stereo unspecified), which Potency is on record?
Answer: Its Potency is “inactive”.

Question: Which Potency does the source give for `Cc1occc1C(=O)NNC(=O)CN1C(=O)NC(C)(c2ccccc2)C1=O` (stereo unspecified) here?
Answer: Its Potency is “inactive”.

Question: For `COc1ccc(-c2cn3nc(N4CCCC(C(=O)NCc5ccc(Cl)cc5)C4)sc3n2)cc1` (stereo unspecified), which Potency is on record?
Answer: Its Potency is active: 9.2 µM.

Question: Which Potency does the source give for `Oc1ccc(/C=N/Nc2ccnc3cc(Cl)ccc23)c(O)c1O` here?
Answer: Its Potency is inconclusive: 18.4 µM [inhibitor, single point].

Question: Which Potency does the source give for `CCOc1ccc(-n2c(Cc3ccccc3)nnc2SCc2c(C)noc2C)cc1` here?
Answer: The Potency was inconclusive: 29.1 µM [inhibitor, single point].

Question: Which Potency does the source give for `COc1ccc(-n2ncc3c(=O)n(CC(=O)N4CCCc5ccccc54)cnc32)cc1` here?
Answer: Its Potency is inconclusive: 9.2 µM [inhibitor, partial curve].

Question: With `O=C(CN1C(=O)CCC1=O)Nc1nc(-c2ccccn2)cs1` as the molecule, how does the Potency read?
Answer: Its Potency is inconclusive: 4.11 µM [inhibitor, full curve, poor fit].

Question: With `CCN(c1ccccc1)c1nc(C#N)nc(N(CC)c2ccccc2)n1` as the molecule, how does the Potency read?
Answer: Its Potency is inconclusive: 29.1 µM [inhibitor, single point] and inconclusive: 35.5 µM [inhibitor, single point].

Question: For `O=C(Nc1ccccc1Cl)N1CCC(CN2CCCC2)CC1`, which Potency is on record?
Answer: Its Potency is “inactive”.

Question: With `C/C(=N/NC(=S)Nc1ccccc1)c1ccc2c(c1)OCO2` as the molecule, how does the Potency read?
Answer: Its Potency is active: 0.82 µM.

Question: With `COc1ccc(OC)c(NC(=O)C2CCCN(S(C)(=O)=O)C2)c1` (stereo unspecified) as the molecule, how does the Potency read?
Answer: The Potency was “inactive”.

Question: With `Oc1ccc(Cl)cc1-c1cc(-c2ccco2)[nH]n1` as the molecule, how does the Potency read?
Answer: Its Potency is active: 9.2 µM.

Question: With `Cc1ccc(CSc2ncc(Cl)c(C(=O)Nc3nnc(C)s3)n2)cc1` as the molecule, how does the Potency read?
Answer: Its Potency is “inactive”.

Question: With `COc1ccccc1OCCNC(=O)c1c(-c2ccccc2Cl)noc1C` as the molecule, how does the Potency read?
Answer: The Potency was inconclusive: 29.1 µM [inhibitor, single point].

Question: For `CN(C)C(=O)CCc1ccc2c3c([nH]c2c1)[C@]1(C)[C@@H](C(=O)N2CCCCC2)C[C@H](CC(=O)NCC24CC5CC(CC(C5)C2)C4)C(=O)N1CC3`, which Potency is on record?
Answer: Its Potency is active: 9.2 µM.

Question: For `CCN1CCCC1CNC(=O)c1cc2c(OC)c(OC)c(OC)cc2[nH]1` (stereo unspecified), which Potency is on record?
Answer: Its Potency is “inactive”.

Question: Which Potency does the source give for `CC1=C(c2ccc(F)cc2)S(=O)(=O)N=C1N1CCC(C(=O)NCCc2cccc(C)c2)CC1` here?
Answer: Its Potency is inconclusive: 29.1 µM [inhibitor, single point].

Question: With `Cc1cc2n(c(=O)c1C#N)CCCN2c1ccccc1` as the molecule, how does the Potency read?
Answer: Its Potency is inconclusive: 6.51 µM [inhibitor, full curve, poor fit].

Question: With `COCCNC(=O)c1cccc(OC2CCN(Cc3ccc(C(C)C)cc3)CC2)c1` as the molecule, how does the Potency read?
Answer: The Potency was inconclusive: 23.1 µM [inhibitor, single point].

Question: Which Potency does the source give for `N#Cc1cccc2c1-c1ccccc1/C2=N/NC(N)=S` here?
Answer: The Potency was inconclusive: 20.6 µM [inhibitor, single point].

Question: For `COc1ccc(Cn2ccnc2SCC(=O)Nc2nc3ccccc3s2)cc1`, which Potency is on record?
Answer: Its Potency is inconclusive: 29.1 µM [inhibitor, single point].

Question: Which Potency does the source give for `Cc1cc(C(=O)CSc2nnc(-c3ccc(F)cc3)o2)c(C)n1CC1CCCO1` (stereo unspecified) here?
Answer: The Potency was inconclusive: 20.6 µM [inhibitor, single point].

Question: For `CCOc1ccc(N2C(=O)CC(NCCc3ccc(S(N)(=O)=O)cc3)C2=O)cc1` (stereo unspecified), which Potency is on record?
Answer: Its Potency is “inactive”.

Question: For `Cc1cccc(OCCC(=O)Nc2ccccc2C(N)=O)c1`, which Potency is on record?
Answer: Its Potency is active: 9.2 µM.

Question: With `COc1ccc(NC(=O)N2CCCC2C(=O)NCCc2ccccc2)cc1` (stereo unspecified) as the molecule, how does the Potency read?
Answer: The Potency was “inactive”.

Question: Which Potency does the source give for `Cc1cc(C)cc(NC(=O)N2CCCN(c3ncccc3[N+](=O)[O-])CC2)c1` here?
Answer: The Potency was inconclusive: 25.9 µM [inhibitor, single point].
